Assay results reported in the supplement of paper PMC7826260.
The list shows a part of the results. The data describe in vitro nicking of single-stranded DNA by Rep domains for 1 h at 37 °C with 3 µM enzyme; only the middle of the 90-letter strands is printed. Values are log2 of uncut reads against the no-enzyme pool; the lower, the more was cut; hits are not called. Shares of all reads are compared; uncut strands gain when others are lost, and binding without cutting may add a little.

Key:
Test in all cases: uncleaved DNA left, log2 of reads against the no-enzyme library (log2 ratio); higher = less cleavage (more negative = more Rep cleavage of the k-mer); sequences stand for … in CTCGTCCG…ACCGGAGA
[1] = test system: T1, Rep nickase domain of Muscovy duck circovirus
T1 sequence (Rep 1-111, printed without the tag): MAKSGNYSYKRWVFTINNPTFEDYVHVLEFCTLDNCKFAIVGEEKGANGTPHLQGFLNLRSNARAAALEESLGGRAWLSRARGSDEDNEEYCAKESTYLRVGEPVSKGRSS
Method: (§1)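 A pool of 90-nt single-stranded DNAs with seven random bases just before the constant AC of the nick site (name = the seven bases) was cut by 3 µM recombinant His6-SUMO-tagged Rep nickase domain (300 nM DNA, 50 mM HEPES pH 8.0, 50 mM NaCl, 1 mM MnCl2, 1 h, 37 °C, three replicates). Uncut DNA was amplified and sequenced.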

[2] = test system: T2, Rep nickase domain of banana bunchy top virus
T2 sequence (Rep 1-94, printed without the tag): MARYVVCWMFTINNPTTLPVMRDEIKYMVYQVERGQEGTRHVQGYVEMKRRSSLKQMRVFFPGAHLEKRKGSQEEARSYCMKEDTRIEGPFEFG
Method: as §1

[3] = test system: T3, Rep nickase domain of cabbage leaf curl virus
T3 sequence (Rep 1-116, printed without the tag): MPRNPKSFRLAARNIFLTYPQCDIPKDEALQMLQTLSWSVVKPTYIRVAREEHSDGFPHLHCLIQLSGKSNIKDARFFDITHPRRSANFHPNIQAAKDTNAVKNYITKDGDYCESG
Method: as §1

[4] = test system: T4, Rep nickase domain of chickpea chlorotic dwarf virus
T4 sequence (Rep 1-124, printed without the tag): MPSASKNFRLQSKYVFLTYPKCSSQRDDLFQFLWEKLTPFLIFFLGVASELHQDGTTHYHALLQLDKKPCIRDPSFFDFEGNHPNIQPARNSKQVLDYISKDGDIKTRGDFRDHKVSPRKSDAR
Method: as §1

[5] = test system: T5, Rep nickase domain of faba bean necrotic yellows virus
T5 sequence (Rep 1-98, printed without the tag): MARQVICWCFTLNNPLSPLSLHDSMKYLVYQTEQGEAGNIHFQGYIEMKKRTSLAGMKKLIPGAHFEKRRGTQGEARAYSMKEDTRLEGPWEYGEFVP
Method: as §1

[6] = test system: T6, Rep nickase domain of maize striate mosaic virus
T6 sequence (Rep 1-117, printed without the tag): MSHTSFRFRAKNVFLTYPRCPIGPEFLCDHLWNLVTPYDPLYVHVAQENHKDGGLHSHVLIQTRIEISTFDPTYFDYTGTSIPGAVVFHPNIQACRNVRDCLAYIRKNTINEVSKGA
Method: as §1

[7] = test system: T7, Rep nickase domain of porcine circovirus 2
T7 sequence (Rep 2-116, printed without the tag): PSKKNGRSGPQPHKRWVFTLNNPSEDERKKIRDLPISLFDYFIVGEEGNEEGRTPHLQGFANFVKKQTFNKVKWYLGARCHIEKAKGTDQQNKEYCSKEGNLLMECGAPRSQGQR
Method: as §1

[8] = test system: T8, Rep nickase domain of tomato golden mosaic virus
T8 sequence (Rep 1-124, printed without the tag): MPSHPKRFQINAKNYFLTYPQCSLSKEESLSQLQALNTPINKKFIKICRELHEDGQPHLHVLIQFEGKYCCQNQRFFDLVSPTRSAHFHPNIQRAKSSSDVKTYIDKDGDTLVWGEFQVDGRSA
Method: as §1

[9] = test system: T9, Rep nickase domain of tomato yellow leaf curl virus
T9 sequence (Rep 1-136, printed without the tag): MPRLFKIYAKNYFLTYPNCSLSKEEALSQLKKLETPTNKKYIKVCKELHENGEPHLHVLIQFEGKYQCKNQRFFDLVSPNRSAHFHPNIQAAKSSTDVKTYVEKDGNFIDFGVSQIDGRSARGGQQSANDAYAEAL
Method: as §1

[10] = test system: T10, Rep nickase domain of wheat dwarf virus
T10 sequence (Rep 1-137, printed without the tag): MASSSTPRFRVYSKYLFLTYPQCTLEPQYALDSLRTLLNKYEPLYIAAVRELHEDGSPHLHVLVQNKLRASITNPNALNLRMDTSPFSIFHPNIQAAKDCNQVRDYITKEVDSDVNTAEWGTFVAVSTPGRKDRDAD
Method: as §1

Sequence	uncleaved DNA left (log2) [1]	uncleaved DNA left (log2) [2]	uncleaved DNA left (log2) [3]	uncleaved DNA left (log2) [4]	uncleaved DNA left (log2) [5]	uncleaved DNA left (log2) [6]	uncleaved DNA left (log2) [7]	uncleaved DNA left (log2) [8]	uncleaved DNA left (log2) [9]	uncleaved DNA left (log2) [10]
ACCCGAT	0.108	-0.164	0.134	0.457	-0.095	0.295	0.037	-0.0969	-0.136	-0.0553
CCTAAAG	0.0161	0.00946	-0.845	-0.303	0.106	-1.02	0.25	0.00394	-0.0793	-0.0755
AGAACCC	0.168	0.118	0.705	1.67	0.172	2.05	0.202	0.011	0.129	0.265
TGGGGCC	-0.106	0.00869	0.628	1.52	-0.0656	1.93	0.106	-0.0984	-0.058	-0.0768
CTGGGGA	-0.0367	-0.154	0.505	0.852	0.0969	1.33	0.136	-0.115	-0.115	-0.0287
CTCTCAT	0.00264	0.0871	0.193	-0.811	0.137	-0.407	-0.416	0.0698	0.0834	0.138
CATCGGC	-0.0364	-0.0485	-0.302	-0.364	-0.104	-1.18	0.0179	-0.115	-0.0601	-0.106
GAGAATT	0.0243	-1.26	0.413	0.052	-0.449	1.73	-2.74	-0.0262	0.021	0.21
TGAAGTA	-0.0253	-0.107	-0.0548	-0.973	0.0185	-0.438	-0.0667	-0.0727	0.0321	-0.0792
TGAGCAT	0.0179	-0.0431	0.351	0.903	0.0286	1.08	0.00435	-0.0294	-0.0138	0.00588
CGGACGA	-0.0393	0.0992	0.607	1.58	-0.0458	1.72	0.0447	-0.0788	0.00722	0.134
GGCCAGC	0.0162	0.125	0.613	1.42	0.0558	1.86	0.178	0.0742	0.126	0.0598
TGAGATA	0.0441	0.0381	0.0922	-0.288	0.00277	0.556	0.0206	0.121	-0.0848	0.0227
ATCCGCG	-0.175	-0.0823	-0.548	1.08	-0.0495	0.0685	0.13	-0.187	-0.093	-0.202
AATCTAC	0.0876	0.0276	-0.124	-1.56	0.0765	-0.267	0.00458	0.0643	-0.00357	0.0202
CATGATA	-0.0554	-0.124	-0.226	-2.12	-0.12	-0.51	-0.101	0.024	-0.0583	-0.122
ATACGAC	-0.0387	-0.0484	-0.14	-0.328	-0.0355	-0.745	0.0124	6.61e-06	-0.0307	0.00875
CAACCTA	-0.103	-0.013	-0.371	-2.49	-0.0154	-0.771	-1.28	-0.123	-0.0933	-0.129
ATGCGGA	-0.0421	-0.012	-0.471	-0.533	0.0675	-1.19	-0.0383	-0.0172	0.0277	-0.167
TGGCACC	0.0573	-0.0214	0.426	0.913	-0.0749	1.17	0.00981	0.0147	0.0758	0.167
CGCGGCT	-0.13	-0.0698	-0.184	0.105	-0.0584	0.417	-0.0687	0.0119	-0.229	-0.0116
CAAATCT	-0.0479	0.0204	-3.22	-3.12	0.0703	-1.33	-0.834	-0.86	-0.014	-1.37
AGTGTAG	-0.0365	0.000486	-0.525	-0.469	0.00567	-1.11	0.152	0.0246	0.0494	-0.119
AGGAACC	0.051	-0.00667	0.115	0.472	-0.0852	0.455	-0.438	-0.109	0.0433	0.0763
TAAAACT	-0.0984	-0.0956	-4.51	-3.9	0.0371	-3.13	-2.24	-3.59	0.0443	-3.77
CGAAGAA	-0.0316	-0.0347	0.0615	0.00871	-0.00457	-0.468	-0.112	-0.0473	-0.113	-0.0218
ATTTTTC	0.0377	0.00333	0.0512	-0.171	0.0643	-0.827	-0.0206	0.0924	0.00925	0.0263
AGCGTCT	-0.0248	0.0196	-0.00467	0.363	0.0537	1.45	-0.0537	0.0193	-0.119	0.0549
GTAGCCA	0.0348	0.128	0.303	0.808	-0.0127	1.41	0.132	0.07	0.0808	0.125
TGGGCTC	0.193	0.17	0.858	1.72	0.127	2.19	0.27	0.0996	0.0876	0.151
